# Laboratory results published in the supplement of paper PMC4723716.
# ± gives the uncertainty stated by the source. In all, about 9,900 compounds were measured (“viability index relative to DMSO control”: median about 1, lowest 2% from about 0.85 on). The list shows a part of the results.
# System: Plasmodium falciparum NF54 stage V gametocytes
# Experiment: viability index relative to DMSO control (fraction); higher = less gametocyte killing
# Details: 2.5 µM, library set: Broad Institute DOS, incubation time: 72 h
# Summary of the method: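 Gametocytes (P. falciparum NF54, stage V) were treated with compound at 2.5 µM for 72 hr at 37°C in low oxygen, in serum-free medium at 0.75% gametocytemia and 1.25% hematocrit. Counts of 20–70 µm2 red particles, taken from one field per well after MitoTracker Red CMXRos with saponin, were divided by the plate mean of solvent-only wells. This ratio is the viability index.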
row,SMILES,viability index
1,Cc1ccccc1S(=O)(=O)N1CCCCN2[C@H](CO)[C@H](c3ccc(C#CCN(C)C)cc3)[C@H]2C1,0.991 ± 0.03
2,C[C@@H]1CCCCO[C@H](CN(C)S(=O)(=O)c2ccccc2)[C@@H](C)CN([C@@H](C)CO)C(=O)c2cc(NC(=O)Nc3ccc4c(c3)OCO4)ccc2O1,0.9587 ± 0.0082
3,CCc1sc(N2[C@@H](C#N)[C@@H](c3ccccc3-c3cccc(F)c3)[C@@H]2CO)nc1C,1.05 ± 0.12
4,O=C(CN1CCOCC1)N1CC[C@H]2[C@H](CO)Nc3ccc(Br)cc3[C@H]21,1.01 ± 0.04
5,O=C(CC1CC1)N1CC(=O)N2[C@H](CO)[C@@H](c3ccc(C#Cc4cccc(F)c4)cc3)[C@@H]2C1,1 ± 0.038
6,Cc1cccc(S(=O)(=O)N2C[C@@H]3[C@H](c4ccccc42)[C@H](CO)N3Cc2ccc3c(c2)OCO3)c1,1.05 ± 0.039
7,C[C@H](CO)N1C[C@H](C)[C@H](CN(C)C(=O)NC2CCCC2)OCc2cnnn2CCCC1=O,1.01 ± 0.049
8,CO[C@H]1CN(C)C(=O)c2ccc(NS(=O)(=O)CC(F)(F)F)cc2OC[C@H](C)N(C(=O)NC(C)C)C[C@H]1C,1.04 ± 0.035
9,CNC[C@H]1OCc2cn(nn2)CCCC(=O)N([C@H](C)CO)C[C@@H]1C,1.08 ± 0.03
10,CO[C@H]1CN(C)C(=O)c2cc(NC(=O)CC(F)(F)F)ccc2OC[C@H](C)N(CC2CC2)C[C@H]1C,0.967 ± 0.015
11,CN1c2ccc(C3=CCCCC3)cc2[C@@H]2[C@@H](CCN2C(=O)c2ccccc2F)[C@@H]1CO,0.9269 ± 0.0031
12,CCCNC(=O)N1C[C@]2(CN(Cc3cccc(F)c3)C2)c2c([nH]c3cc(OC)ccc23)[C@H]1CO,0.96 ± 0.11
13,C[C@@H]1CCCCO[C@@H](CN(C)S(=O)(=O)c2ccc(Cl)cc2)[C@H](C)CN([C@@H](C)CO)C(=O)c2cc(NC(=O)Nc3ccc(C(F)(F)F)cc3)ccc2O1,1.09 ± 0.079
14,COc1cccc(-c2ccccc2[C@H]2[C@@H](C#N)N(C(=O)Cc3ccccc3)[C@@H]2CO)c1,1.124 ± 0.0072
15,C[C@H]1CC(=O)N[C@H](c2ccccc2)C/C=C\C[C@H](c2ccc3c(c2)OCO3)NC1=O,1.05 ± 0.032
16,CN(C)CC(=O)N[C@H]1C=C[C@@H](CC(=O)NCc2ccc(Cl)cc2)O[C@@H]1CO,1.15 ± 0.21
17,O=S(=O)(c1ccccc1)N1CCCCN2[C@H](CO)[C@@H](c3ccc(C#CC4CCCC4)cc3)[C@@H]2C1,1.01 ± 0.026
18,C[C@@H]1CN([C@@H](C)CO)C(=O)CCCn2nncc2CO[C@@H]1CN(C)Cc1ccccc1C(=O)O,1.03 ± 0.081
19,CO[C@@H]1CN(C)C(=O)c2ccc(NS(=O)(=O)CC(F)(F)F)cc2OC[C@@H](C)N(C(=O)NC(C)C)C[C@H]1C,1.04 ± 0.044
20,CCC(=O)N1C[C@H](C)[C@H](OC)CN(C)C(=O)c2ccc(NC(=O)CC(F)(F)F)cc2OC[C@H]1C,1.05 ± 0.12
